Assay results published in PMC5806898.

Columns and labels:
[1] = target: SPG15-GFP (UniProt Q68DK2); experiment: co-IP; native immunoprecipitation with anti-GFP and protein A-Sepharose from HeLa cells stably expressing SPG15-GFP (control: HeLa cells); western blot, bands quantified with IMAGEJ, 3 repeats
[2] = target: T1, GST followed by the N-terminal 709 residues of SPG15 (UniProt Q68DK2); experiment: pull-down; GST_15N1–709 as bait in SH-SY5Y cell lysate (PBS with 0.5% Triton X-100, pH 7.4; 2.5 mg/ml protein, 50 ug bait for every 4 ml), recovered with glutathione Sepharose 4B; western blot, bands quantified with IMAGEJ
T1 sequence: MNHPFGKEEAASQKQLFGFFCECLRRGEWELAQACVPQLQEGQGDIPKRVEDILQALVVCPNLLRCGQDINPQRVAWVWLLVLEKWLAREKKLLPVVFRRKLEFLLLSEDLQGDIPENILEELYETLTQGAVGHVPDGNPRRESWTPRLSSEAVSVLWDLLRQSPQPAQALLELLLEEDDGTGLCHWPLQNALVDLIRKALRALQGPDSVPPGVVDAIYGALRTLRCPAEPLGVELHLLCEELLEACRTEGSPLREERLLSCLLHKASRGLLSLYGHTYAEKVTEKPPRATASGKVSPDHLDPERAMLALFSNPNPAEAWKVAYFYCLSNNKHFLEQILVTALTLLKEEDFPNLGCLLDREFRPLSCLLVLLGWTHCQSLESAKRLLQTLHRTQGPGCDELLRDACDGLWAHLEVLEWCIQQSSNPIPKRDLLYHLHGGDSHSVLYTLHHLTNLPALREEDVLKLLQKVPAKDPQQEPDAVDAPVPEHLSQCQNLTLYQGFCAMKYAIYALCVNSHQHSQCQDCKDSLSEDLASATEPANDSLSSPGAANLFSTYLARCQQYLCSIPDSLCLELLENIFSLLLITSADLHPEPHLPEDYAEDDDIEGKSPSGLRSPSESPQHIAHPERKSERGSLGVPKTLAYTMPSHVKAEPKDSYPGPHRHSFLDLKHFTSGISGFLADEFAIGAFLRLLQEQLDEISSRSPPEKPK

[3] = target: T1, GST followed by the N-terminal 709 residues of SPG15; experiment: pull-down; GST_15N1–709 as bait in HeLa cell lysate (PBS with 0.5% Triton X-100, pH 7.4; 2.5 mg/ml protein, 50 ug bait for every 4 ml), recovered with glutathione Sepharose 4B; western blot, bands quantified with IMAGEJ

- percent of input pulled down [1]: 0.1%
- percent of input pulled down [2]: 0.4%
- percent of input pulled down [3]: 0.15%
Substance: cation-independent mannose 6-phosphate receptor (a stretch of the chain, chain not printed)
